The list shows a part of the results. Cut-off read from the data, not from the text of the source: active = 3.2 or more and inactive = the rest. The signal is at background level for most entries.
B1: MST1R_Y1360 (peptide)
chain: QLPATYMNLGP
B2: MTM1_Y71_R69S_YF (peptide)
chain: TNFSLYLRSLE
B3: MTDH_Y364 (peptide)
chain: STTSDYQWDVS
B4: MPZ_Y82_S78L (peptide)
chain: ILIFHYAKGQP
B5: MRPL3_Y265 (peptide)
chain: KMGNIYRTEYG
B6: MUC17_Y4332_YF (peptide)
chain: FFVVEYRDQKP
B7: MTUS1_Y151_C148R (peptide)
chain: LNRAGYCDALE
B8: MPZ_Y181 (peptide)
chain: FYVVRYCWLRR
B9: MPZ_Y82 (peptide)
chain: ISIFHYAKGQP
B10: MRPL3_Y265_M261T (peptide)
chain: KTGNIYRTEYG
B11: MSH2_Y863_S860L (peptide)
chain: GELQGYDIMEP
B12: MPZ_Y177_Y177C (peptide)
chain: LLLLFCVVRYC
B13: MTR_Y921 (peptide)
chain: IRQDHYESLKE
B14: MTM1_Y71_R69P_YF (peptide)
chain: TNFPLYLRSLE
B15: MRPL28_Y230_Y230C (peptide)
chain: PLFKICVAELI
B16: MSH2_Y563 (peptide)
chain: SLNEEYTKNKT
B17: MRGPRX1_Y130_H133R (peptide)
chain: LWPIWYRCRRP
B18: MT-CO1_Y304 (peptide)
chain: VDTRAYFTSAT
B19: MRPS34_Y34_L33I_YF (peptide)
chain: RDSQIYAVDFE
B20: MSH2_Y563_T564A (peptide)
chain: SLNEEYAKNKT
B21: MPZ_Y220_A221T (peptide)
chain: QTPVLYTMLDH
B22: MSH2_Y863 (peptide)
chain: GESQGYDIMEP
B23: MRPS34_Y34_YF (peptide)
chain: RDSQLYAVDFE
B24: MTM1_Y277 (peptide)
chain: SKLTIYDARPS
B25: MPZ_Y82_Y82C (peptide)
chain: ISIFHCAKGQP
B26: MRPL3_Y265_M261T_YF (peptide)
chain: KTGNIYRTEFG
B27: MTMR14_Y462_Y462C (peptide)
chain: TGSFTCEAVEL
B28: MTOR_Y1804_E1799K (peptide)
chain: KAVLHYKHQNQ
B29: MPZ_Y220_D224Y_YF (peptide)
chain: QTPVLYAMLFH
B30: MRPS34_Y34_L33I (peptide)
chain: RDSQIYAVDYE
B31: MPZ_Y177 (peptide)
chain: LLLLFYVVRYC
B32: MPZ_Y181_Y177C (peptide)
chain: FCVVRYCWLRR
B33: MTMR14_Y462 (peptide)
chain: TGSFTYEAVEL
B34: MUC17_Y4332_D4334N_YF (peptide)
chain: FFVVEYRNQKP
B35: MTHFD1_Y52_S49F (peptide)
chain: DDFNLYINVKL
B36: MTM1_Y260_I264S (peptide)
chain: KDDEKYLDVSR
B37: MSH2_Y856 (peptide)
chain: LEEFQYIGESQ

Assays:
Assay in all cases: enrichment score (SH2-bound / input frequency) (ratio); bacterial display of known human phosphotyrosine sites (pTyr-Var adds point mutants) read by sequencing; higher = stronger binding; tyrosines were phosphorylated by kinases first
Conditions in all cases: peptide library: pTyr-Var
[1] = target: SHP2 C-SH2 domain E139D
[2] = target: SHP2 C-SH2 domain wild-type
[3] = target: SHP2 N-SH2 domain L43F
[4] = target: SHP2 N-SH2 domain T42A
[5] = target: SHP2 N-SH2 domain T52S
[6] = target: SHP2 N-SH2 domain wild-type
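Note: displayed peptides selected on beads carrying the immobilized SH2 domain, with library peptides lacking any tyrosine serving as negative controls.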

| Binder | enrichment score [1] | enrichment score [2] | enrichment score [3] | enrichment score [4] | enrichment score [5] | enrichment score [6] |
| --- | --- | --- | --- | --- | --- | --- |
| B1 | inactive: 1.7 | inactive: 2.17 | inactive: 1.98 | inactive: 2.22 | inactive: 1.9 | inactive: 1.57 |
| B2 | inactive: 0.988 | inactive: 1.19 | inactive: 0.973 | inactive: 1 | inactive: 1.22 | inactive: 1.36 |
| B3 | inactive: 0.68 | inactive: 0.59 | inactive: 0.668 | inactive: 0.692 | inactive: 0.719 | inactive: 0.679 |
| B4 | active: 3.41 | inactive: 3.03 | active: 3.23 | inactive: 2.55 | inactive: 2.83 | active: 3.2 |
| B5 | inactive: 0.832 | inactive: 0.721 | inactive: 0.922 | inactive: 0.73 | inactive: 0.788 | inactive: 0.721 |
| B6 | inactive: 2.07 | inactive: 2.19 | inactive: 2.44 | inactive: 1.82 | inactive: 2.77 | inactive: 1.99 |
| B7 | inactive: 0.759 | inactive: 0.908 | inactive: 0.735 | inactive: 0.663 | inactive: 1.08 | inactive: 0.71 |
| B8 | inactive: 0.306 | inactive: 0.191 | inactive: 0.232 | inactive: 0.349 | inactive: 0.205 | inactive: 0.172 |
| B9 | inactive: 2.1 | inactive: 1.49 | inactive: 1.66 | inactive: 1.67 | inactive: 2.05 | inactive: 1.82 |
| B10 | inactive: 1.22 | inactive: 0.94 | inactive: 0.683 | inactive: 0.658 | inactive: 0.728 | inactive: 0.717 |
| B11 | inactive: 0.594 | inactive: 0.663 | inactive: 0.626 | inactive: 0.421 | inactive: 0.718 | inactive: 0.621 |
| B12 | inactive: 1.8 | inactive: 1.99 | inactive: 1.74 | inactive: 1.62 | inactive: 1.73 | inactive: 1.69 |
| B13 | inactive: 0.698 | inactive: 0.576 | inactive: 0.64 | inactive: 0.761 | inactive: 0.736 | inactive: 0.753 |
| B14 | inactive: 0.854 | inactive: 0.774 | inactive: 0.884 | inactive: 0.86 | inactive: 0.923 | inactive: 0.895 |
| B15 | inactive: 0.754 | inactive: 0.973 | inactive: 0.562 | inactive: 0.409 | inactive: 0.725 | inactive: 0.996 |
| B16 | inactive: 0.593 | inactive: 0.63 | inactive: 0.437 | inactive: 0.461 | inactive: 0.758 | inactive: 0.431 |
| B17 | inactive: 0.202 | inactive: 0.195 | inactive: 0.304 | inactive: 0.263 | inactive: 0.168 | inactive: 0.261 |
| B18 | inactive: 0.972 | inactive: 0.839 | inactive: 0.728 | inactive: 0.86 | inactive: 0.751 | inactive: 0.776 |
| B19 | inactive: 0.778 | inactive: 0.949 | inactive: 0.897 | inactive: 0.868 | inactive: 0.974 | inactive: 0.865 |

| Binder | enrichment score [1] | enrichment score [2] | enrichment score [3] | enrichment score [4] | enrichment score [5] | enrichment score [6] |
| --- | --- | --- | --- | --- | --- | --- |
| B20 | inactive: 0.586 | inactive: 0.625 | inactive: 0.758 | inactive: 0.591 | inactive: 0.606 | inactive: 0.508 |
| B21 | inactive: 2.59 | active: 3.42 | active: 10.2 | active: 18.4 | active: 10.7 | active: 4.5 |
| B22 | inactive: 0.627 | inactive: 0.573 | inactive: 0.652 | inactive: 0.517 | inactive: 0.47 | inactive: 0.71 |
| B23 | inactive: 0.693 | inactive: 0.934 | inactive: 1.08 | inactive: 0.546 | inactive: 0.581 | inactive: 0.802 |
| B24 | inactive: 0.846 | inactive: 0.915 | inactive: 0.82 | inactive: 0.689 | inactive: 0.819 | inactive: 0.917 |
| B25 | inactive: 0.79 | inactive: 0.777 | inactive: 0.885 | inactive: 0.924 | inactive: 0.903 | inactive: 1 |
| B26 | inactive: 0.766 | inactive: 0.637 | inactive: 0.686 | inactive: 0.738 | inactive: 0.729 | inactive: 0.695 |
| B27 | inactive: 0.646 | inactive: 0.947 | inactive: 0.766 | inactive: 0.632 | inactive: 0.686 | inactive: 1.12 |
| B28 | inactive: 1.63 | inactive: 1.13 | inactive: 1.36 | inactive: 0.895 | inactive: 1.18 | inactive: 1.36 |
| B29 | inactive: 0.558 | inactive: 0.628 | inactive: 0.567 | inactive: 0.745 | inactive: 0.72 | inactive: 0.522 |
| B30 | inactive: 0.891 | inactive: 0.631 | inactive: 0.764 | inactive: 0.914 | inactive: 0.834 | inactive: 0.847 |
| B31 | inactive: 1.73 | inactive: 1.66 | inactive: 1.57 | inactive: 1.48 | inactive: 2.08 | inactive: 1.38 |
| B32 | inactive: 0.314 | inactive: 0.311 | inactive: 0.249 | inactive: 0.201 | inactive: 0.191 | inactive: 0.322 |
| B33 | inactive: 0.963 | inactive: 0.666 | inactive: 0.9 | inactive: 0.993 | inactive: 0.843 | inactive: 1.04 |
| B34 | active: 3.65 | active: 3.32 | active: 3.85 | active: 3.53 | active: 4.89 | active: 3.52 |
| B35 | inactive: 1.33 | inactive: 2.26 | inactive: 1.86 | inactive: 1.34 | inactive: 1.03 | inactive: 2.86 |
| B36 | inactive: 0.55 | inactive: 0.567 | inactive: 0.627 | inactive: 0.495 | inactive: 0.629 | inactive: 0.674 |
| B37 | inactive: 0.569 | inactive: 1.09 | inactive: 1.35 | inactive: 0.747 | inactive: 1.14 | inactive: 1.5 |

Reference: the supplement of paper PMC10369915
